Hit rate of the full screen: of about 310,000 compounds, about 18,000 (5.8%) were called active. The inconclusive results got no clear call from the source; some entries with a clear call stand among them for comparison. The call rests on the fitted dose curve; in most records, active means well fitted inhibition curve with a large enough effect; inconclusive means small, poorly fitted or top-dose-only effect, or another doubt; inactive means no such curve, though single readings can be large or run the other way. Potencies of inconclusive entries are left out as doubtful fits.
assay: Primary qHTS for delayed death inhibitors of the malarial parasite plastid, 48 hour incubation; conditions: P. falciparum luciferase growth in erythrocytes; series mostly up to 28.7 µM; activity change, negative = inhibition: at the top concentration
Method in brief: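 A one-generation exposure of luciferase-tagged malaria parasites in RPMI 1640/Albumax erythrocyte culture, 37 C and 5% CO2. Inhibition is inferred from decreased luminescence after adding detection reagent.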
On the % scale 0 is the no-effect control and ±100 the full control effect; potency means the concentration at half of the fitted maximal effect; tags describe the fitted curve by direction and shape.

Structure (SMILES)	Potency	activity change, negative = inhibition
CCCOC(=O)c1ccc(Oc2cn[nH]c2-c2ccc(O)cc2O)cc1	inconclusive [inhibitor, single point]	–
CCN(CC)c1ccc(S(=O)(=O)N2CCOCC2)cc1NC(=O)COC(=O)c1ccco1	inconclusive [inhibitor, partial curve, poor fit]	–
CCCc1cnc(N2CCN(S(C)(=O)=O)CC2)nc1	inconclusive [inhibitor, single point]	–
COC(=O)[C@H](CC(C)C)NC(=O)NCCC1=CCCCC1	inconclusive [inhibitor, single point]	–
COc1ccc(-n2nc(C(=O)NCC(=O)N3CC(C)CC(C)C3)c3ccccc3c2=O)c(OC)c1 (stereo not given)	active: 2.08 µM	–
N=c1sccn1CC(=O)Nc1ccc(S(N)(=O)=O)cc1	inconclusive [inhibitor, partial curve, poor fit]	–
CCCCn1c(N)c(N(CCOC)C(=O)C2CCN(c3ncnc4sc(C)c(C)c34)CC2)c(=O)[nH]c1=O	active: 11.7 µM	–
O=C(O)c1ccc(CSc2nnc(SCc3ccccc3)s2)cc1	inconclusive [inhibitor, single point]	–
O=C(O)CCN1C(=O)/C(=C/c2cn(-c3ccccc3)nc2-c2cccs2)SC1=S	–	inactive: -14.3%
COc1ccc(N2CCN(C(=O)c3ccc(N4C(=O)NC5CC4(C)Oc4ccccc45)cc3)CC2)cc1 (stereo not given)	inconclusive [inhibitor, single point]	–
CCCCCCCCCCCC(=O)NC(C(=O)O)C(O)c1ccccc1 (stereo not given)	–	inactive: 24.9%
O=C1C2C3C=CC(C2C(=O)N1c1cccc(O)c1)C1C2C(=O)N(c4cccc(O)c4)C(=O)C2C31 (stereo not given)	–	inactive: -11%
COc1ccc(C2C(C(C)=O)=C(C)N=c3s/c(=C\c4ccco4)c(=O)n32)c(OC)c1 (stereo not given)	inconclusive [inhibitor, partial curve]	–
Cc1coc2c(C)c3oc(=O)c(CCC(=O)NCCCN4CCCC4=O)c(C)c3cc12	inconclusive [inhibitor, single point]	–
CCCC(C)NC(=O)C1CC(=O)N(CCc2ccc(F)cc2)C1 (stereo not given)	–	inactive: 0%
CCc1noc(C)c1C(=O)OCC(=O)NCc1ccccc1OC	–	inactive: -15.5%
Cc1ccc(C(C(=O)NCc2ccco2)N(C(=O)CNC(=O)c2cccs2)c2c(C)cccc2C)cc1 (stereo not given)	–	inactive: 4.3%
Cc1ccc(C(=O)C(C)N2C(=O)NC(C)(c3ccccc3)C2=O)cc1 (stereo not given)	–	inactive: 1.19%
Cc1cc(-c2cccc(Br)c2)c(C#N)c(N)n1	–	inactive: 16.9%
COc1ccc(-c2noc(-c3cccs3)n2)cc1OC	–	inactive: 134%
Cc1cccc(OCC(=O)Nc2ccc(S(=O)(=O)N3CCCC3)cc2)c1	inconclusive [inhibitor, partial curve, poor fit]	–
CCN(CC)c1ccc(NC(=O)CN2CCN(CC(=O)Nc3ccc(OC)cc3)CC2)cc1	inconclusive [inhibitor, partial curve, poor fit]	–
Nc1c2c(nc3c1CCCC3)CCCC2 (tested in a mixture with another compound)	inconclusive [inhibitor, full curve]	–
Cc1cccn2cc(-c3ccccc3)nc12	–	inactive: 386%

Structure (SMILES)	Potency	activity change, negative = inhibition
COc1cc(C2C(C#N)=C(N)Oc3n[nH]c(-c4cccnc4)c32)ccc1OCC(N)=O (stereo not given)	–	inactive: 14.2%
CCN(CC)C(=O)C1CCN(Cc2cn(C)nc2-c2ccc(Oc3ccccc3)cc2)CC1	active: 7.38 µM	–
O=C1N=C(C=c2ccc(=Cc3[nH]c(=O)[nH]c3O)cc2)C(=O)N1	–	inactive: -8.18%
O=C(OCc1cccnc1)C1=Cc2ccccc2OC1	–	inactive: 7.14%
O=c1c2c3nc4ccccc4nc3n(Cc3ccccc3)c2ncn1Cc1ccco1	active: 10.4 µM	–
CCN(CC(=O)Nc1cc(Cl)ccc1C)C(=O)c1oc2ccc(OC)cc2c1C	inconclusive [inhibitor, single point]	–
Cc1ccc(NC(=O)Cn2cccc2)c(Br)c1	–	inactive: 1.04%
COC(=O)[C@@]1(Cc2ccc(F)cc2)[C@H]2c3cc(C(=O)N4CCCC4)n(CCCNc4ncc(C(F)(F)F)cc4Cl)c3C[C@H]2CN1C(=O)c1ccccc1	active: 2.08 µM	–
CC1=NN(C(N)=S)C(=O)C1N=Nc1ccccc1Cl (stereo not given)	inconclusive [inhibitor, partial curve, poor fit]	–
O=C(Nc1ccccc1Cl)c1sccc1-c1ccccc1	inconclusive [inhibitor, partial curve]	–
O=C(Nc1ccc(S(=O)(=O)Nc2nccs2)cc1)C1=NN(c2ccccc2)C(=O)CC1	inconclusive [inhibitor, partial curve, poor fit]	–
c1cncc(C(c2nnnn2C2CCCCC2)N2CCCCC2)c1 (stereo not given)	active: 14.7 µM	–
COCC(=O)N(Cc1cc2cccc(C)c2[nH]c1=O)c1ccccc1	–	inactive: -0.753%
CCOc1ccc(NC(=O)COc2ccc(C(=O)NCC3CCCO3)cc2OC)cc1 (stereo not given)	inconclusive [inhibitor, single point]	–
O=C(Nc1nc(-c2ccc(F)c(F)c2)cs1)C1=COCCO1	–	inactive: 83.8%
COc1ccc(C)cc1NC(=O)CSc1ccc(-c2sc(C)nc2C)nn1	active: 11.7 µM	–
COc1ccc(N2CCN(C(=O)CNS(=O)(=O)c3ccc(C)c(C)c3)CC2)cc1	inconclusive [inhibitor, single point]	–
O=C(Cn1c(=O)n(CCc2c[nH]c3ccccc23)c(=O)c2cccnc21)Nc1ccccc1F	inconclusive [inhibitor, single point]	–
CSc1ccccc1NC(=O)CN1c2ccccc2CC1C (stereo not given)	inconclusive [inhibitor, single point]	–
Cc1cccc(-n2nc3c([n+]2[O-])CCc2nonc2-3)c1C	–	inactive: -8.01%
CC12CC3CC(C)(C1)CC(C(=O)NCc1ccncc1)(C3)C2	–	inactive: 8.09%
COc1ccc(-n2c(SCC(=O)N3CCCC3)nc3ccccc3c2=O)cc1	–	inactive: 40.2%
Cc1cc(NC(=O)c2cc(-c3ccco3)on2)no1	–	inactive: 127%
CCn1cc(C(=O)NCCC(C)C)c(=O)c2cc(S(=O)(=O)N3CCCCC3)ccc21	inconclusive [inhibitor, partial curve, poor fit]	–

Structure (SMILES)	Potency	activity change, negative = inhibition
CN(Cc1c(F)cccc1Cl)C(=O)c1ccc(NC(=O)CC2SC(N3CCCC3)=NC2=O)cc1 (stereo not given)	active: 10.4 µM	–
CC1CCCC(C)N1CCCNC(=O)c1ccc2nc(N3CCCCC3)sc2c1 (stereo not given)	inconclusive [inhibitor, full curve, poor fit]	–
Cc1ccc(C(=O)N2CC(C)CC(C)C2)cc1S(=O)(=O)N1CCCCC1 (stereo not given)	inconclusive [inhibitor, partial curve]	–
CN1CCN(C(=O)c2ccc3c(c2)N(Cc2ccccc2F)C(=O)c2ccccc2S3=O)CC1 (stereo not given)	inconclusive [inhibitor, single point]	–
Cc1cc(C)n(-c2nc(NCCN(C)C)c3c4c(sc3n2)CCCC4)n1	inconclusive [inhibitor, single point]	–
OC(c1ccccc1)(c1ccccc1)c1ccn[nH]1	inconclusive [inhibitor, partial curve, poor fit]	–
COC(=O)c1ccc(N2CCN(S(=O)(=O)c3ccc4ccccc4c3)CC2)c([N+](=O)[O-])c1	inconclusive [inhibitor, partial curve, poor fit]	–
CCc1ccc2c(c1)c1nnc(NN)nc1n2C	active: 11.7 µM	–
O=C(Nc1nc(-c2ccc(S(=O)(=O)N3CCCC3)cc2)cs1)C1COc2ccccc2O1 (stereo not given)	active: 9.28 µM	–
COc1ccc(OC)c(-n2c(SCC(=O)N3CCc4ccccc43)nc3c(c2=O)SCC3)c1	inconclusive [inhibitor, single point]	–
CCOC(=O)Cc1c(C)nc2c(-c3ccc(Cl)cc3)c[nH]n2c1=O	inconclusive [inhibitor, single point]	–
O=C1c2ccccc2-c2nnc(-c3ccccc3)cc21	active: 2.62 µM	–
COc1ccc(-c2cc(C(=O)N3CCN(S(=O)(=O)c4ccc(C)cc4)CC3)[nH]n2)cc1	inconclusive [inhibitor, partial curve, poor fit]	–
CC(C)NS(=O)(=O)c1ccc(OCC(=O)NCc2ccccc2)cc1	inconclusive [inhibitor, single point]	–
O=C(NCC(c1cccnc1)N1CCN(c2ccc(F)cc2)CC1)c1ccc(F)cc1 (stereo not given)	inconclusive [inhibitor, single point]	–
O=C(/C=C/c1cccc([N+](=O)[O-])c1)n1cnc2ccccc21	–	inactive: -15.8%
O=C(c1cc2cc(C(F)(F)F)ccc2s1)N1CCOCC1	–	inactive: 34.3%
CCCCN(C(=O)c1ccc(NC2CC2)c([N+](=O)[O-])c1)c1c(N)n(CC(C)C)c(=O)[nH]c1=O	inconclusive [inhibitor, single point]	–
COc1ccc2oc(=O)c(C(=O)OCc3ccccc3)cc2c1	–	inactive: 7.58% [at 0.00184 µM]
Cc1ccc2nc3c(cc2c1)CN(Cc1ccco1)C(=NCC1CCCO1)S3 (stereo not given)	inconclusive [inhibitor, partial curve]	–
COc1ccc(CCNC(=O)C(=O)NCCC2CCCCN2S(=O)(=O)c2cccs2)cc1 (stereo not given)	inconclusive [inhibitor, partial curve, poor fit]	–
COc1ccc(CCN(Cc2cc3cc(C)cc(C)c3nc2Cl)C(=O)C2CC2)cc1	inconclusive [inhibitor, partial curve, poor fit]	–

Source: PubChem BioAssay AID504832 (National Center for Advancing Translational Sciences (NCATS), 2011)
